The supplement of paper PMC10126150
Sequences with one replicate were seen in a single cluster, so their values are uncertain.

Test system: ATP
Assay: switch fluorescence ratio, 500 uM ATP over buffer (Cy3 cluster intensity, sum of 5 cycles each) (fold (ratio)); higher = stronger signal-on switching upon ATP binding; sequences stand for … in TCGTCGGCAGCGTCAGATGTGTATAAGAGACAGTTTTTTTTTTTTTTTTTTTTTTTTT…TC
Conditions: aptamer strand: ATP DNA aptamer (quencher-CACCTGGGGGAGTATTGCGGAGGAAGG + anchor), 100 nM annealed; ATP concentration: 500 uM; one replicate
Method in brief: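 Cy3-labelled switching-strand clusters on a modified Illumina MiSeq flow-cell were annealed to 100 nM quencher-labelled ATP aptamer and imaged first in selection buffer, then after 15 min with 500 uM ATP at 22 °C. NaOH stripping and re-annealing separated each of five buffer/ATP cycles, and clusters outside 100-1000 RFU were excluded. The fluorescence ratio sums target-cycle Cy3 intensity over buffer-cycle Cy3 intensity per cluster and averages it per switch-domain sequence.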
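Also: ATP exposure 15 min at 22 °C before imaging.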

Sequence	switch fluorescence ratio
CCGTGCATTA	4.33
TGGCACTTTA	1.01
CGAATGGCGG	0.94
CAGGAGGAAA	0.97
GATCCATGGC	1.02
AAACAAACCG	1.05
AAGGGAGTTT	1.03
GTCATTTTTT	0.995
GCTCTAGGCA	0.972
GCAACACTGT	1.05
AATATCTAGG	0.983
GAATTTACGA	1.05
CTTAAAATTG	1.03
ATTCATGGC	0.989
ACCCGCGTGG	1.03
CTAACGGGGT	1.02
TTAATAATAG	0.987
CCCGGCAGTG	1.34
CGTATGTGTA	0.99
ATAATCCCTT	1.01
AGGGACAAAG	0.97
ATGGGAGTTG	0.996
ATTTGGGAGC	0.973
TTTTCCACCT	1.04
TAGCGAGGGC	1.04
TAGTGAGTTC	0.959

Sequence	switch fluorescence ratio
CCCATGCTCC	1.68
AGAATCAGGA	0.978
GCTCATACGG	1.07
GTGACTAGGG	0.967
TCGCTTTTCC	1.09
CAAAATTATG	0.964
TCATCTTGTG	1.02
TTGATTGT	0.996
GACTGGAGAA	1.01
CCTATACGGA	1.07
AGGGGACCAG	1.16
GCAGGGTCGT	0.94
TTGGTTTT	1
TCTTGGGACC	1.14
ACTTCCGGTT	1.07
CCAGAGTTAT	1.14
TGCTTCTGA	0.968
TATGACCCGC	1.26
CGTCTATAAC	1.31
TTGGATTACT	1.02
CTTAATGTAT	1.04
ATCATTGCAT	1.01
GTTAGGGAA	1.02
CGGGTCAAGT	0.971
AAGGGTCACT	0.977
AAAACCATTG	0.997

Sequence	switch fluorescence ratio
CGATCGGGG	0.948
TAGAGCGTTC	1
ATCATAACGG	1.06
GACCTCGGTA	1.04
GGGGTTCTTG	1.01
GGCCACAAGC	1.03
TTACCTTGGT	1.07
GTTCCGGGTG	2.67
AATCTCTGTG	0.963
GGAATGCGAG	1.16
GTAGACAGT	1.02
TTAGCACGGA	1.05
TGACATATCA	1
TATTGCCGAG	1.02
GCGTCGTTGC	1.03
CATTTGGAGG	1.01
ACCTATGTGG	1.04
AAAGAGTACG	1.02
GAGTGTTGAG	0.979
AGGAGTCAGC	1.06
CGTTTCGATA	1.03
CACTTATAGA	1.08
AATTTAATCA	0.987
GTTCACCACA	1.01
GACGCGCCTC	1.8
AAATTTTAAG	1.01

Sequence	switch fluorescence ratio
CCGACTAATT	2.16
GCTGTATGGG	1
TATAAGATC	0.954
ATTTCCGTGT	0.961
ACCCAATGAG	1.06
CGATTATGAG	0.987
TAGAATGAGC	1.01
GGGTTGTATC	0.98
TTTTAGAATA	0.973
AGGTTTCGAC	0.98
TGTCCGCGGT	1.43
AAAAGTTGG	1.04
GTGAGAAGGT	0.961
TCGAACGACG	1.23
GCGGTTTTCC	1.1
CCACACTTCA	1.11
GTGACTTTC	0.965
GACATCGATA	1.01
CAGGCGCGGT	1.08
CGTATGCTTC	1.05
GCGAGTATAC	1.05
ATAAGTTGG	1.01
GGGCGTGCTC	0.984
ATAAAGAAAC	1.01
AAGGCACTTC	1.14
TTTTGCTCGC	1.05

Sequence	switch fluorescence ratio
CGAAGGTGTC	1.18
GTTGCGGCTG	0.948
CAATTGATGG	0.986
GAGATCTTCG	1.05
ATTCGGGAGT	0.993
ATGTTAAATA	0.969
GAGACTGGGG	0.996
GACCGTCAAG	0.984
GCGCGTAGAG	1.06
GTAGACGTGG	0.964
GACGATCCAG	1
ATTAATTAGC	1.02
GAACTCTGGA	0.997
TCGAGTACAG	0.993
GCGAGTGTCA	1.03
GGCTTCGTCA	1.01
CGCGTCTGCG	0.984
GTGGCTGG	1.02
CCCATTTACG	1.09
CAATCCGGAT	0.984
TTGGTTATG	0.989
CGGAGGCATG	1.09
TAAAGATGCG	0.997
CCCGTTGGGC	1.07
TGGAGTGGAA	0.982
CGTCTGAGCT	1.04

Sequence	switch fluorescence ratio
CACAGCCCCC	1.14
TAGGTACGTC	0.987
ACGCACCGGC	1.4
AAGCGTAGGA	1.01
ACGTGCCGGC	0.997
CACGTTCGTG	1.04
TACCAGCTCC	1.09
TCGCACTTTT	1.05
TACTTTGGTG	1.03
GTAGCTAGTT	1.03
TGGGACAGAG	1.03
TACCTCCTTT	0.993
ATATTCTCTC	1.16
ACCGTTACGG	0.98
GCAAAGGTAT	0.968
ACGGAGACAC	1.07
TAGCTCGTGT	1.03
CCAGATGGTT	0.983
TAACGTACTG	1.78
TTCTGCTAGC	1.07
TACCGTAAAG	1.12
TAGCTGGACC	0.992
TACAGAGGAG	1.03
CGTAGGTTGA	1.03
CTCTACTG	1.07
CCGGGCTTCG	1.05

Sequence	switch fluorescence ratio
CGCCCCGGTA	1.05
TTCAACCCCG	1.02
CTTGCGGAAC	1.33
GACGGAATGT	1.64
CTTGAGTCTT	0.993
TTTTCGA	1.03
ACCAAAAACA	0.966
ACCTTGATT	1.04
CGTCTAGGAG	0.974
GTACAGGAGG	1.02
CATCACCCAG	1.49
AAAGGTGACC	1.01
ACATTATATC	1.01
GGTACGCTG	0.978
GGGGAAGCAC	1.17
GAATCTGGGA	0.994
ATGGTAGCTC	1.01
AAGTTCTTTG	0.982
CTTTATCTTT	0.986
TGTGCTGAG	0.98
ACGTAGTTT	1.02
TAGGGTAATC	1.13
GGTAGGGATT	0.978
ATTACAGTGG	1.01
CAATGAGGCC	0.95
TCGATTGGG	1.01

Sequence	switch fluorescence ratio
AAACTTAAGG	1.01
ATCGATCCC	0.984
GTCATAGCAG	0.981
GGTTGACTAT	0.999
AAGCACATT	1.11
ATTCATGAA	1.02
AACTCGTAAG	0.991
TAGGCAAAG	1.12
TCATCTGGTA	1.07
GCCACTTTCT	0.998
CTCGGCCAGT	1.08
TAGCCACTAC	1.75
GCCTGAACGG	0.979
CAAAATCGCG	1.05
TCTCCAGAAG	1
ACAAGTTCAA	0.985
CTAGGGACCC	0.961
GGCAGTGTTG	0.99
GCGGTTCTGA	1.04
